From PubChem BioAssay AID463173 (ICCB-Longwood Screening Facility, Harvard Medical School, 2010)
Screen size: about 52,000 compounds; about 4,300 (8.3%) were called active. Rule as the data show it: active = survival mostly below about 52% (no sharp cut-off); inactive = mostly above about 56%. The list shows a part of the results.

Tested on: DeltatarO mutant
Experiment: S. aureus survival, RN4220 and DeltatarO strains – OD600, teichoic acid synthesis inhibitors, primary screen (AID 463173)
Conditions: S. aureus RN4220 wild type/DeltatarO growth, OD600, 18 h, active compounds read low, screened at 18.75 µg/mL (by protocol)

Structure (SMILES)	survival
CCc1ccccc1NS(=O)(=O)c1ccc2c(c1)OCC(C(=O)N1CCCC1)O2 (centres undefined)	inactive: 74%
CCOCc1cc(CN2CCN(c3cccc(Cl)c3)CC2)c(O)c2ncccc12	inactive: 55%
O=C(CCC1CCCC1)N1CCN(C(=O)Cc2ccccc2)CC1	inactive: 94%
CCOc1ccc(CNC(=O)c2ccc(Sc3ccc(Cl)cc3)c(NC(C)=O)c2)cc1OC	inactive: 80%
COc1ccc2oc(=O)c(C(N)=O)cc2c1	inactive: 88%
CCS(=O)(=O)c1nc(S(=O)(=O)c2ccc(Cl)cc2)c(NCc2ccccc2Cl)s1	inactive: 69%
O=C(NC1CCCC1)C(c1ccc(O)cc1)N(C(=O)Cn1nnc(-c2cccs2)n1)C1CCCC1 (centres undefined)	inactive: 97%
Cc1ccccc1-c1nc2cc(NC(=O)COc3ccc(F)cc3)ccc2o1	inactive: 56%
CC1=C(C(=O)Nc2ccc(C)cc2C)C(c2ccccc2)n2ncc(C(=O)Nc3ccccc3)c2N1 (centres undefined)	inactive: 58%
CCOC(=O)c1c(-c2ccccc2)csc1NC(=O)c1cc(-c2ccc(Cl)cc2)on1	inactive: 67%
Cc1c(CC(=O)NCCc2ccc(Cl)cc2)c(=O)oc2c(C)c3occ(C(C)(C)C)c3cc12	inactive: 60%
Cc1ccc(NC(=O)C2CCCN(S(=O)(=O)c3cccc4cccnc34)C2)c(C)c1 (centres undefined)	inactive: 78%
COC(=O)c1ccc2c(=O)n(CCCCCC(=O)N3CCN(c4ccc(OC)cc4)CC3)c(=O)[nH]c2c1	inactive: 55%
CCOC(=O)c1sc(NC(=O)c2cc(-c3ccc(F)cc3)on2)c(C(=O)OCC)c1C	inactive: 65%
CCOC(=O)CSc1nc2ccc(NC(=O)c3ccccc3F)cc2s1	inactive: 66%
CCc1nonc1NC(=O)c1oc2ccccc2c1C	inactive: 70%
O=C(NC(NC(=O)c1ccco1)c1ccc(Br)cc1)c1ccco1	inactive: 77%
CCOc1cc(C2c3c(-c4ccc(Br)cc4)n[nH]c3C(=O)N2c2ccc(Cl)cc2)ccc1O (centres undefined)	active: 35%
O=C1C2c3ccccc3CCN2C(=O)CN1CCc1ccccc1 (centres undefined)	inactive: 109%
COc1ccc(CNC(=O)CCS(=O)(=O)c2ccc3c(c2)oc(=O)n3C)cc1	inactive: 75%
CCN(CC)C(=O)CSc1nnc(COc2ccc(C)cc2)n1N	inactive: 95%
CC1(C)CC(=O)C=C(Nc2ccccc2F)C1	inactive: 80%
CCCCC(CC)CNC(=O)c1ccc2c(=O)n(Cc3ccc(OC)cc3)c(=O)[nH]c2c1 (centres undefined)	inactive: 84%

Structure (SMILES)	survival
Cn1nc(C(=O)NCc2ccc(Cl)cc2)c2c1-c1ccccc1SC2	inactive: 78%
Cc1cc(=O)n2nc(N3CCC(C(=O)Nc4ccc(C)c(Cl)c4)CC3)sc2n1	inactive: 101%
COc1ccc(CNC(=O)Cc2c(C)c3c(cc(C)c4c(C)c(C)oc43)oc2=O)cc1	inactive: 93%
CCSc1ncc(Cl)c(C(=O)Nc2nc3ccc(OC)cc3s2)n1	inactive: 83%
CCOc1ccc(NC(=O)C(NS(=O)(=O)c2ccc3c(c2)CCN3C(C)=O)C(C)C)cc1 (centres undefined)	inactive: 124%
O=C(CSc1nc2ccccc2nc1Cc1ccc(Cl)cc1)NCCc1ccccc1	inactive: 69%
CCOc1ccccc1NC(=O)c1nnn(CC(=O)Nc2ccc(OC)c(OC)c2)c1N	inactive: 91%
Cc1ccc(CNC(=O)c2ccc3c(O)c(S(=O)(=O)c4ccccc4)c(=O)[nH]c3c2)cc1	inactive: 94%
CCOC(=O)N1CCC(NC(=O)c2ccc3c(c2)N(Cc2ccc(F)cc2)C(=O)c2ccccc2S3(=O)=O)CC1	inactive: 98%
CCOc1ccccc1CC1C(=O)Nc2ccc(Br)cc21 (centres undefined)	inactive: 59%
COc1cccc(CNC(=O)C(NS(=O)(=O)c2ccc3c(c2)CCN3C(C)=O)C(C)C)c1 (centres undefined)	inactive: 80%
COc1ccc(OC)c(C(C)NC(=O)Cn2c(=O)cc(C)c3c(C)nn(-c4ccc(C)cc4)c32)c1 (centres undefined)	inactive: 55%
COc1ccc(/C=C2\CCOC2=O)cc1	inactive: 88%
CCCCC(=O)Nc1ccc2nc(SCC(=O)N3CCCC3)sc2c1	inactive: 88%
COc1ccccc1-c1cc(C(=O)N2CCCCC2C)no1 (centres undefined)	active: 11%
COc1ccc(CNC(=O)c2nn(-c3ccccc3C)nc2CO)cc1	inactive: 91%
CCOc1ccc(S(=O)(=O)N(CC(=O)NCCSc2ccccc2)c2ccccc2)cc1	inactive: 95%
O=C(Cn1c2ncccc2c(=O)n1-c1ccccc1)Nc1ccc(F)c(F)c1	inactive: 107%
O=C(NCc1ccc(Cl)cc1)C1CCCN(c2nc3ccccc3n3cccc23)C1 (centres undefined)	inactive: 82%
Cc1cc(C)nc(N2CCCC(C)C2)n1 (centres undefined)	inactive: 87%
Cc1cc(N2CCCCC2)nc2ccc(NC(=O)/C=C/c3ccccc3Cl)cc12	active: 44%
Cc1ccccc1Cn1c(=O)n(CCc2ccccc2)c(=O)c2ccccc21	inactive: 64%
CCn1cc(C(=O)OCC(=O)Nc2ccc(F)cc2F)c(=O)c2ccc(C)nc21	inactive: 164%

Structure (SMILES)	survival
Cc1cccc(-c2nc(Cn3c(=O)cc(-c4ccccc4)c4c(C)nn(C)c43)c(C)o2)c1	active: -5%
COC(=O)c1ccc(Cn2c(=O)cc(C(F)(F)F)c3c(C)nn(C)c32)cc1	inactive: 95%
COC(F)(C(=O)NC12CC3CC(CC(C3)C1)C2)C(F)(F)F (centres undefined)	inactive: 108%
COc1ccc(OC)c(NC(=O)CSc2nc3ccccc3nc2N2CCCCC2)c1	active: 5%
CCCC(=O)OCc1cnc(C)c2oc(=O)c(C(=O)Nc3ccccc3)cc12	inactive: 88%
COc1ccc(NC(=O)C2CCC(CNS(=O)(=O)c3ccc(Br)s3)CC2)cc1OC (centres undefined)	inactive: 75%
COc1ccc(NC(=O)COc2ccc(S(=O)(=O)NC3CCCCC3)cc2)cc1OC	inactive: 69%
CC(NC(=O)CCNS(=O)(=O)c1cccc2nsnc12)c1ccccc1 (centres undefined)	inactive: 51%
COc1ccc(Br)cc1C1Sc2ccccc2NC2=C1C(=O)c1ccccc12 (centres undefined)	active: 31%
O=C(Nc1cccc(Cl)c1)c1cnc[nH]1	inactive: 104%
Cc1ccc2c(=O)cc(CSCC(=O)Nc3nnc(C)s3)[nH]c2c1	inactive: 107%
O=C(COc1ccccc1)Nc1nnc(S(=O)(=O)N2CCCC2)s1	active: 39%
CCOc1ccc(-n2c(=O)c3c4c(sc3n(CC(=O)Nc3cccc(C(F)(F)F)c3)c2=O)CCCCC4)cc1	inactive: 77%
COc1ccccc1NC(=O)C(Cc1ccccc1)NS(=O)(=O)c1ccc2c(c1)c(=O)n(C)c(=O)n2C (centres undefined)	inactive: 112%
O=C(Nc1ccc2oc(-c3ccc4ccccc4c3)nc2c1)c1ccccc1F	inactive: 64%
O=C(OCC1CCCO1)c1ccc2c(c1)N(Cc1ccccc1Cl)C(=O)c1ccccc1S2(=O)=O (centres undefined)	inactive: 113%
CCCCOc1cccc(NC(=O)CSc2nnc(C)s2)c1	inactive: 50%
Cc1cc(Nc2cccc(C(F)(F)F)c2)nc2ccc(NC(=O)c3ccc(=O)[nH]c3)cc12	active: 37%
O=C(NCc1ccc(F)cc1)c1c(O)nc2ccccn2c1=O	active: 44%
COc1ccc(NC(=O)c2ccc(C3SCC(=O)N3Cc3ccco3)cc2)cc1 (centres undefined)	inactive: 78%
CN(Cc1ccccc1)c1ncnc2onc(-c3ccc(F)cc3)c12	inactive: 81%
COc1ccc(CNC(=O)C(C)n2ccc3cc(S(=O)(=O)N4CCCC4)ccc32)cc1OC (centres undefined)	inactive: 85%
Cc1cc(C)c(NC(=O)C2CCN(c3nnc(C)c4c(C)n(-c5ccccc5)nc34)CC2)c(C)c1	active: 52%

Structure (SMILES)	survival
COc1ccccc1NC(=O)C1=C(C)Nc2nc(SCc3ccccc3C)nn2C1CC(C)C (centres undefined)	inactive: 92%
COc1ccc(Cn2nnnc2CN(Cc2ccc(C)cc2)Cc2cc3cc4c(cc3[nH]c2=O)OCO4)cc1	inactive: 90%
COc1cc(Cl)c(C)cc1NC(=O)Cn1ncc2c([nH]c3ccccc32)c1=O	inactive: 81%
COc1cccc(C(c2c(O)cc(C)n(Cc3ccco3)c2=O)N2CCN(c3ccccc3)CC2)c1 (centres undefined)	inactive: 68%
O=C(CSc1nccn1Cc1ccc(Cl)cc1)Nc1ccc2c(c1)OCCO2	inactive: 94%
CCC(=O)N/N=C/c1ccc(-c2ccc(Cl)cc2)o1	inactive: 63%
CCOCCCn1c(SCC(=O)Nc2ccc(C)cc2)nc2ccccc2c1=O	inactive: 62%
Cc1cc(C)n(C(C)CC(=O)NCc2ccc(N(C)C)cc2)n1 (centres undefined)	inactive: 71%
COC(=O)c1cc2sccc2n1Cc1nc(-c2ccc(Cl)cc2)oc1C	inactive: 90%
CCc1ccccc1NC(=O)c1ccc2c(c1)N(Cc1cc(C)ccc1C)C(=O)c1ccccc1S2(=O)=O	inactive: 84%
N#CC(C#N)=Cc1cn(-c2ccccc2)nc1C12CC3CC(CC(C3)C1)C2	inactive: 88%
Cc1oc2ncn(C)c(=O)c2c1C(=O)NCCCN1CCCC(C)C1 (centres undefined)	inactive: 80%
O=C(Nc1ccc(Br)cc1F)c1ncoc1-c1ccco1	inactive: 97%
Cc1cc(C)cc(NS(=O)(=O)c2ccc3c(c2)CCCN3C(=O)C2CCC2)c1	inactive: 74%
COc1ccc(-n2ncc(C(=O)N3CCc4ccccc4C3)c2C2CCN(C(=O)OC(C)(C)C)CC2)cc1	inactive: 88%
CCc1ccc2oc(C(=O)Nc3nonc3CC)c(C)c2c1	inactive: 78%
Cc1nc(-c2ccc(C)c(S(=O)(=O)N3CCC(C(=O)NCc4ccc(Cl)cc4)CC3)c2)no1	inactive: 126%
COc1ccc(CCNC(=O)C2CCCN(c3nc4c(C)cc(C)cc4s3)C2)cc1OC (centres undefined)	inactive: 81%
COc1ccc(C2=C(C)C(=O)N(Cc3ccc(C(=O)NCc4ccc(C)cc4)cc3)S2(=O)=O)cc1	inactive: 97%
Cc1cccc(CN2CCN(CC(=O)NCc3ccc(Cl)cc3)C2=O)c1	inactive: 72%
